Experimental data as given in PMC6753473.
No constants are given. Whether binding was seen depends on the method and setting. In cells and extracts the contact can be indirect. Some entries that bind do so weakly or less than the wild type. For some of these results: Tags and fused reporters may be left off the sequences shown.

Protein sequences, listed by entry. Tags and fused reporters are not part of them.
UniProt Q8IZH2: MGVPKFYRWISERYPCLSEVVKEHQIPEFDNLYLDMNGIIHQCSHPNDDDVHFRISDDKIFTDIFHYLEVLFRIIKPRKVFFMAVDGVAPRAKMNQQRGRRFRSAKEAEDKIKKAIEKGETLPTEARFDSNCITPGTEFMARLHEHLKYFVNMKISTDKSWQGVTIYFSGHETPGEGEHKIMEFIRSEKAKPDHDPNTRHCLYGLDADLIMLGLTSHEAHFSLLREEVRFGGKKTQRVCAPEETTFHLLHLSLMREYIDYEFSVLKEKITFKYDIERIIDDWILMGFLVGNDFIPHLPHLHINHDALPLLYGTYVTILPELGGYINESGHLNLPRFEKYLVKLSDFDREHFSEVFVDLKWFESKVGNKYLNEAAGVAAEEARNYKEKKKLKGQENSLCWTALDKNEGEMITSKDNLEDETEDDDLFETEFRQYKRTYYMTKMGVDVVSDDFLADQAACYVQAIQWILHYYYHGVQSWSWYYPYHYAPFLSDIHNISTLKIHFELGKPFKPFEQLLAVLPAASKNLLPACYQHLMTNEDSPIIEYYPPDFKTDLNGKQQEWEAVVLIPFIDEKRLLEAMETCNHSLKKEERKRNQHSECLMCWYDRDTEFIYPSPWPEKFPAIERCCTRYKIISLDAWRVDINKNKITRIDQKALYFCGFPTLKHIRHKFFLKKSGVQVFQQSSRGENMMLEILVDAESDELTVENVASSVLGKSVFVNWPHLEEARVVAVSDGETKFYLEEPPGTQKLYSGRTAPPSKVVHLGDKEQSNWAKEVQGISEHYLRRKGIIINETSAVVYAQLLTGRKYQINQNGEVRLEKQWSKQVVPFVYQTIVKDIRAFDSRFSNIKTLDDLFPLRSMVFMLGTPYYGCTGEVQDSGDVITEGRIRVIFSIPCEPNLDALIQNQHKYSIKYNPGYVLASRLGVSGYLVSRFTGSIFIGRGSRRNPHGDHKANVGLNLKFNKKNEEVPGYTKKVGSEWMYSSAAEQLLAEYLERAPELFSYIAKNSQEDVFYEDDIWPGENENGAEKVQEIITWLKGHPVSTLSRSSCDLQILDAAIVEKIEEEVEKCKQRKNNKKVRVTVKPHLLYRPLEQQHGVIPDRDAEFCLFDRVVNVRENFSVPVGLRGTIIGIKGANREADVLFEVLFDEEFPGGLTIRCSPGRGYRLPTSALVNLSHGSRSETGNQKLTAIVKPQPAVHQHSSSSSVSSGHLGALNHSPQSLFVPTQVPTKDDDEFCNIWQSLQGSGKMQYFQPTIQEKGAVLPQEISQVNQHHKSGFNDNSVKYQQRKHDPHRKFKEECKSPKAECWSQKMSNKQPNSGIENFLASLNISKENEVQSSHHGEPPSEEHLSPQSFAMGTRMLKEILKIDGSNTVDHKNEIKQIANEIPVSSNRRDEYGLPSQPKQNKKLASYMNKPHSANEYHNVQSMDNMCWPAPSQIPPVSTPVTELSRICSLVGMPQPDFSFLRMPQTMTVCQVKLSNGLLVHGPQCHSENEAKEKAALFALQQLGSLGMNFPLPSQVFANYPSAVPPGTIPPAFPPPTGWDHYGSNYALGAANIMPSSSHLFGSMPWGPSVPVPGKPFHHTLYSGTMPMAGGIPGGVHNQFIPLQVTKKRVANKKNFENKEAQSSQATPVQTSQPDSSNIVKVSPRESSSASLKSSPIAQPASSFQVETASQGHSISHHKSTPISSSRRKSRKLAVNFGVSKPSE

Experiments:
Test in all cases: co-IP; GFP-tagged and HA-tagged proteins co-expressed in HEK293T cells, immunoprecipitated with anti-GFP antibodies, western blot; NET buffer; RNase A added
[1] = target: T1, GFP-PatL1 (full length) (human) (UniProt Q86TB9)
T1 sequence: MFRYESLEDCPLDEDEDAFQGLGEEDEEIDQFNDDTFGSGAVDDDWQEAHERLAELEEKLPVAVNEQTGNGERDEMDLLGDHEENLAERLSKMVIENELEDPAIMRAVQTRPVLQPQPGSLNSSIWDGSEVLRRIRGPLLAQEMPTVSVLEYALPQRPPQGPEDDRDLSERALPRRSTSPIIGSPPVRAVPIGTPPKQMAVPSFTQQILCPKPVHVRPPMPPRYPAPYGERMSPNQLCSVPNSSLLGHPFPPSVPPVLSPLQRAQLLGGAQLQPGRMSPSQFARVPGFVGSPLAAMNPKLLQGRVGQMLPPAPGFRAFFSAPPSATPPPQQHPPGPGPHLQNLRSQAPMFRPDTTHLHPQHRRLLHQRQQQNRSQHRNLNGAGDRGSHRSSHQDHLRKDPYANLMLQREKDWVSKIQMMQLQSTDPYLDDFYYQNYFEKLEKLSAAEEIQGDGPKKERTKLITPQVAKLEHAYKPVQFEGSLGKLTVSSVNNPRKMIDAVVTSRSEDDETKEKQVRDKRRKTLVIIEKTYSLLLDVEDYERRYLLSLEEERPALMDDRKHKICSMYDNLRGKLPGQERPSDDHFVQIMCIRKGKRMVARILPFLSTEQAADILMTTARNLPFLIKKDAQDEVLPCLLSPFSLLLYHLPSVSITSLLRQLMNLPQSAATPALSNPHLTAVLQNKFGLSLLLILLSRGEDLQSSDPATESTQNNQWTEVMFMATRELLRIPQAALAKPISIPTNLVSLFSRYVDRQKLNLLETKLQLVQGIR

[2] = target: T2, PatL1 M+C fragment (residues 399-770) (human) (UniProt Q86TB9)
T2 sequence: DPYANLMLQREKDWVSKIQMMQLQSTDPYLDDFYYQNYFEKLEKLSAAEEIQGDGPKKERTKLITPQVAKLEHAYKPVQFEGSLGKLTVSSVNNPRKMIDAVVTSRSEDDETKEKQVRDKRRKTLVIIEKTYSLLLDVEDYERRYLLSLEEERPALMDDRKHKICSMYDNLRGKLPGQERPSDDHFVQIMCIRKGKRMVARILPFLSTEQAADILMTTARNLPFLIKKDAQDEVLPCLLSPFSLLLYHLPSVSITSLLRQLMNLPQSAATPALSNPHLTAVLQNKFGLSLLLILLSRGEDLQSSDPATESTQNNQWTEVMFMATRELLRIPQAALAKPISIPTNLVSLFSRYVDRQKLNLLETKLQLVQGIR

[3] = target: T3, PatL1 N+P fragment (residues 1-398) (human) (UniProt Q86TB9)
T3 sequence: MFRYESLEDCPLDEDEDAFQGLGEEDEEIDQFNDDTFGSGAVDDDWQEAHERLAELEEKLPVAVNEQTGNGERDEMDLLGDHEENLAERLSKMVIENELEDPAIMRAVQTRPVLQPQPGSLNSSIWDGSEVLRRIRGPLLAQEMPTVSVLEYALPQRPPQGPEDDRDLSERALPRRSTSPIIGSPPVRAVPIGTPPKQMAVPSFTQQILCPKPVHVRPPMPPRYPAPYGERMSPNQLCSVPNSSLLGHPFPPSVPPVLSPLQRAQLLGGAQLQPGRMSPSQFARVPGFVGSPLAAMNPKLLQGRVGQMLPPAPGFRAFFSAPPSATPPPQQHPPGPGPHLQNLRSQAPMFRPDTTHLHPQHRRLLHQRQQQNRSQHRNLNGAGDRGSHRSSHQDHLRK

[4] = target: T4, GFP-PatL1 ΔC (lacks residues 517-770) (human) (UniProt Q86TB9)
T4 sequence: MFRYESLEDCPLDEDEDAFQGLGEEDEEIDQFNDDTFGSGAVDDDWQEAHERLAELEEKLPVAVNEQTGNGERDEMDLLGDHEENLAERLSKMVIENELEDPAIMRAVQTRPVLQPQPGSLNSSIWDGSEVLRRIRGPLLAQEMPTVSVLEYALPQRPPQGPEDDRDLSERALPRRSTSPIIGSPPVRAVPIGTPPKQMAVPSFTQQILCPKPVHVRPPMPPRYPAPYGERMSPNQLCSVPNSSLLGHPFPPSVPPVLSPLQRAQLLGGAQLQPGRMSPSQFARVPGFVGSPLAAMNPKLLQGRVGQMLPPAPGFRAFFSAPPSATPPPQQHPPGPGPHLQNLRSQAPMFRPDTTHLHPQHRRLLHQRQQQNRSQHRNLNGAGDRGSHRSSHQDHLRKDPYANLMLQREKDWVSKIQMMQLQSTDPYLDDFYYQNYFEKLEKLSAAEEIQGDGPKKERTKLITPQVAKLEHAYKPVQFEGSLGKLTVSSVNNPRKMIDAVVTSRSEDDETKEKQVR

HA-tagged XRN1 (from UniProt Q8IZH2 1-1706) (enzyme)
binding [1]: binds
binding [2]: binds
binding [3]: no binding
binding [4]: no binding
